Data taken from the supplement of paper PMC11876631.
Changes are numbered by the printed parent chain. Names may count otherwise. ± gives the standard deviation of the averaged measurements. Laboratory Escherichia coli strains with one amino-acid change in an essential protein, pooled on minimal glucose agar with carbenicillin or gentamicin at twice the control MIC (plus kanamycin and chloramphenicol for the plasmids), 48 h. Fold change of barcode share against drug-free plates; higher = less susceptible. Active = above 20 in both replicates (the paper's putatively resistant). '<' = one read or none on drug, '>' = one read or none on a drug-free plate. Shares are relative, so most strains fall below 1 when a few take over. Listed are strains with at least 15 reads on both drug-free plates, and hits; most hits rest on fewer reference reads. Replicate rank correlation about 0.5. Edits are read from barcodes.

B1: metL V545A (protein)
chain: MSVIAQAGAKGRQLHKFGGSSLADVKCYLRVAGIMAEYSQPDDMMVVSAAGSTTNQLINWLKLSQTDRLSAHQVQQTLRRYQCDLISGLLPAEEADSLISAFVSDLERLAALLDSGINDAVYAEVVGHGEVWSARLMSAVLNQQGLPAAWLDAREFLRAERAAQPQVDEGLSYPLLQQLLVQHPGKRLVVTGFISRNNAGETVLLGRNGSDYSATQIGALAGVSRVTIWSDVAGVYSADPRKVKDACLLPLLRLDEASELARLAAPVLHARTLQPVSGSEIDLQLRCSYTPDQGSTRIERVLASGTGARIVTSHDDVCLIEFQVPASQDFKLAHKEIDQILKRAQVRPLAVGVHNDRQLLQFCYTSEVADSALKILDEAGLPGELRLRQGLALVAMVGAGVTRNPLHCHRFWQQLKGQPVEFTWQSDDGISLVAVLRTGPTESLIQGLHQSVFRAEKRIGLVLFGKGNIGSRWLELFAREQSTLSARTGFEFVLAGVVDSRRSLLSYDGLDASRALAFFNDEAVEQDEESLFLWMRAHPYDDLVALDVTASQQLADQYLDFASHGFHVISANKLAGASDSNKYRQIHDAFEKTGRHWLYNATVGAGLPINHTVRDLIDSGDTILSISGIFSGTLSWLFLQFDGSVPFTELVDQAWQQGLTEPDPRDDLSGKDVMRKLVILAREAGYNIEPDQVRVESLVPAHCEGGSIDHFFENGDELNEQMVQRLEAAREMGLVLRYVARFDANGKARVGVEAVREDHPLASLLPCDNVFAIESRWYRDNPLVIRGPGAGRDVTAGAIQSDINRLAQLL
B2: metL L546P (protein)
chain: B1 chain with A545V, L546P
B3: mraY V162A (protein)
chain: MLVWLAEHLVKYYSGFNVFSYLTFRAIVSLLTALFISLWMGPRMIAHLQKLSFGQVVRNDGPESHFSKRGTPTMGGIMILTAIVISVLLWAYPSNPYVWCVLVVLVGYGVIGFVDDYRKVVRKDTKGLIARWKYFWMSVIALGVAFALYLAGKDTPATQLVAPFFKDVMPQLGLFYILLAYFVIVGTGNAVNLTDGLDGLAIMPTVFVAGGFALVAWATGNMNFASYLHIPYLRHAGELVIVCTAIVGAGLGFLWFNTYPAQVFMGDVGSLALGGALGIIAVLLRQEFLLVIMGGVFVVETLSVILQVGSFKLRGQRIFRMAPIHHHYELKGWPEPRVIVRFWIISLMLVLIGLATLKVR
B4: mreC I26P (protein)
chain: MKPIFSRGPSLQIRLILAVLVALGIPIADSRLGTFSQIRTYMDTAVSPFYFVSNAPRELLDGVSQTLASRDQLELENRALRQELLLKNSELLMLGQYKQENARLRELLGSPLRQDEQKMVTQVISTVNDPYSDQVVIDKGSVNGVYEGQPVISDKGVVGQVVAVAKLTSRVLLICDATHALPIQVLRNDIRVIAAGNGCTDDLQLEHLPANTDIRVGDVLVTSGLGGRFPEGYPVAVVSSVKLDTQRAYTVIQARPTAGLQRLRYLLLLWGADRNGANPMTPEEVHRVANERLMQMMPQVLPSPDAMGPKLPEPATGIAQPTPQQPATGNAATAPAAPTQPAANRSPQRATPPQSGAQPPARAPGGQ
B5: mreC V123A (protein)
chain: B4 chain with P26I, V123A
B6: mreC V123P (protein)
chain: B4 chain with P26I, V123P
B7: mreC I124Q (protein)
chain: B4 chain with P26I, I124Q
B8: mreC V238A (protein)
chain: B4 chain with P26I, V238A
B9: mreC V238Q (protein)
chain: B4 chain with P26I, V238Q
B10: msbA V287Q (protein)
chain: MHNDKDLSTWQTFRRLWPTIAPFKAGLIVAGVALILNAASDTFMLSLLKPLLDDGFGKTDRSVLVWMPLVVIGLMILRGITSYVSSYCISWVSGKVVMTMRRRLFGHMMGMPVSFFDKQSTGTLLSRITYDSEQVASSSSGALITVVREGASIIGLFIMMFYYSWQLSIILIVLAPIVSIAIRVVSKRFRNISKNMQNTMGQVTTSAEQMLKGHKEVLIFGGQEVETKRFDKVSNRMRLQGMKMVSASSISDPIIQLIASLALAFVLYAASFPSVMDSLTAGTITVQFSSMIALMRPLKSLTNVNAQFQRGMAACQTLFTILDSEQEKDEGKRVIERATGDVEFRNVTFTYPGRDVPALRNINLKIPAGKTVALVGRSGSGKSTIASLITRFYDIDEGEILMDGHDLREYTLASLRNQVALVSQNVHLFNDTVANNIAYARTEQYSREQIEEAARMAYAMDFINKMDNGLDTVIGENGVLLSGGQRQRIAIARALLRDSPILILDEATSALDTESERAIQAALDELQKNRTSLVIAHRLSTIEKADEIVVVEDGVIVERGTHNDLLEHRGVYAQLHKMQFGQ
B11: mukB V758Q (protein)
chain: MIERGKFRSLTLINWNGFFARTFDLDELVTTLSGGNGAGKSTTMAAFVTALIPDLTLLHFRNTTEAGATSGSRDKGLHGKLKAGVCYSMLDTINSRHQRVVVGVRLQQVAGRDRKVDIKPFAIQGLPMSVQPTQLVTETLNERQARVLPLNELKDKLEAMEGVQFKQFNSITDYHSLMFDLGIIARRLRSASDRSKFYRLIEASLYGGISSAITRSLRDYLLPENSGVRKAFQDMEAALRENRMTLEAIRVTQSDRDLFKHLISEATNYVAADYMRHANERRVHLDKALEFRRELHTSRQQLAAEQYKHVDMARELAEHNGAEGDLEADYQAASDHLNLVQTALRQQEKIERYEADLDELQIRLEEQNEVVAEAIERQQENEARAEAAELEVDELKSQLADYQQALDVQQTRAIQYNQAIAALNRAKELCHLPDLTADCAAEWLETFQAKELEATEKMLSLEQKMSMAQTAHSQFEQAYQLVVAINGPLARNEAWDVARELLREGVDQRHLAEQVQPLRMRLSELEQRLREQQEAERLLADFCKRQGKNFDIDELEALHQELEARIASLSDSVSNAREERMALRQEQEQLQSRIQSLMQRAPVWLAAQNSLNQLSEQCGEEFTSSQDVTEYLQQLLEREREAIVERDEVGARKNAVDEEIERLSQPGGSEDQRLNALAERFGGVLLSEIYDDVSLEDAPYFSALYGPSRHAIVVPDLSQVTEHLEGLTDCPEDLYLIEGDPQSFDDSVFSVDELEKAQVVKIADRQWRYSRFPEVPLFGRAARESRIESLHAEREVLSERFATLSFDVQKTQRLHQAFSRFIGSHLAVAFESDPEAEIRQLNSRRVELERALSNHENDNQQQRIQFEQAKEGVTALNRILPRLNLLADDSLADRVDEIRERLDEAQEAARFVQQFGNQLAKLEPIVSVLQSDPEQFEQLKEDYAYSQQMQRDARQQAFALTEVVQRRAHFSYSDSAEMLSGNSDLNEKLRERLEQAEAERTRAREALRGHAAQLSQYNQVLASLKSSYDTKKELLNDLQRELQDIGVRADSGAEERARIRRDELHAQLSNNRSRRNQLEKALTFCEAEMDNLTRKLRKLERDYFEMREQVVTAKAGWCAVMRMVKDNGVERRLHRRELAYLSADDLRSMSDKALGALRLAVADNEHLRDVLRMSEDPKRPERKIQFFVAVYQHLRERIRQDIIRTDDPVEAIEQMEIELSRLTEELTSREQKLAISSRSVANIIRKTIQREQNRIRMLNQGLQNVSFGQVNSVRLNVNVRETHAMLLDVLSEQHEQHQDLFNSNRLTFSEALAKLYQRLNPQIDMGQRTPQTIGEELLDYRNYLEMEVEVNRGSDGWLRAESGALSTGEAIGTGMSILVMVVQSWEDESRRLRGKDISPCRLLFLDEAARLDARSIATLFELCERLQMQLIIAAPENISPEKGTTYKLVRKVFQNTEHVHVVGLRGFAPQLPETLPGTDEAPSQAS

target: Escherichia coli (laboratory strain); assay: barcode share on antibiotic plates over drug-free plates; higher = less susceptible; conditions: antibiotic: gentamicin; 2× MIC (MIC 0.45 µg/mL)
Protocol: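 A pool of E. coli strains, each edited to carry one amino-acid change in an essential protein, was grown for 48 h on minimal glucose agar with or without antibiotic; strain barcodes were sequenced; mean of two replicates.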

| Protein | fold change of barcode share |
| --- | --- |
| B1 | < 0.0188 |
| B2 | < 0.0208 |
| B3 | < 0.00773 |
| B4 | < 0.0129 |
| B5 | < 0.0158 |
| B6 | < 0.0213 |
| B7 | 0.0303 ± 0.012 |
| B8 | < 0.0119 |
| B9 | < 0.0212 |
| B10 | < 0.0153 |
| B11 | < 0.0147 |
